Measurements as given in article PMC12040169 (PLOS Biology, 2025).
This is one part of the list.

system: T1, C. trachomatis L2/434/Bu expressing GFP (CTL2-GFP); design: species or system HeLa; C. trachomatis total inclusion area by high-content imaging, normalised to DMSO; details: total inclusion area; 28.5 h, 10 µM; inhibitor
T1 construct: L2/434/Bu GFP intracellular growth in HeLa cells
Method in brief: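 High-content images of fixed, Hoechst-stained infected cultures supply inclusion area and count (growth) plus nuclei number (viability), complementing bulk GFP/resorufin fluorescence. MIC determination is unchanged from the primary assay.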

Point of comparison: CN(C)CCn1c(=O)c2c(ncn2C)n(C)c1=O [CBK012590], “% of control remaining” value 24.9786. Against it:
- O=C(CC1(C(=O)O)CCCC1)NC1CCS(=O)(=O)C1 (stereo not drawn) [CBK286855] — higher, 73.6492
- CC(C)CNc1nc(-c2cccnc2)cnc1N [CBK063780] — higher, 137.471
- C1CN(c2nc(N3CCOCC3)nc(N3CCOCC3)n2)CCN1 [CBK261380] — higher, 110.58
- CCCC1CCN(c2ncnc(Oc3ccc(C(=O)c4ccc(F)cc4)cc3)c2[N+](=O)[O-])CC1 [CBK116495] — higher, 84.7284
- C1=CC2N=C(SCc3ccccc3)OC2C=C1 (stereo not drawn) [CBK021412] — higher, 105.2
- Cn1cc(CCCC(=O)NCCC2=CCCCC2)c2ccccc21 [CBK061756] — higher, 95.7231
- COc1cnc(-c2ccccc2OC)c(NC(=O)c2ccccc2)n1 [CBK145261] — higher, 88.2633
- O=C(Nc1cccc(Oc2ccccc2)c1)c1ccc2[nH]ccc2c1 [CBK161728] — higher, 68.4827
- O=C(NC(=S)Nc1ccc(C(=O)O)c(Cl)c1)c1ccc(-c2ccc(Cl)cc2)o1 [CBK265063] — higher, 88.0146
- O=C(O)CCC(=O)Nc1ccc(C(=O)N2CCCc3ccccc32)cc1 [CBK269118] — higher, 77.8659
- COc1ccccc1-c1nnc(SCC(=O)Nc2nccs2)o1 [CBK287390] — higher, 74.1656
- COc1cc(C2C3=C(CC(C)(C)CC3=O)Nc3ncnn32)cc(OC)c1OC (stereo not drawn) [CBK265646] — higher, 91.7093
- CC(Oc1ccc(F)cc1)C(=O)N(C)CC1(C)COC1 (stereo not drawn) [CBK281702] — higher, 106.01
- S=c1[nH]nc(-c2ccc(Cl)cc2)n1-c1cccnc1 [CBK086427] — higher, 60.9189
- CCCCn1c(SCc2nc(-c3cccc(Cl)c3)no2)n[nH]c1=O [CBK295356] — higher, 103.318
- COc1ccc(Cl)cc1NC(=O)C(=O)NCc1ccccn1 [CBK263837] — higher, 117.227
- CCN1CCN(C(=O)Cc2ccc(OC)cc2)C(Cc2ccc(-c3ccncc3)cc2)C1=O (stereo not drawn) [CBK285804] — higher, 94.6249
- CCC(C)(C)c1ccc(S(=O)(=O)N2CCN(CCCOC3CCCCO3)CC2)cc1 (stereo not drawn) [CBK063135] — higher, 90.8759
- COc1ccc(Cn2c(=O)n(C(=O)c3cccc(S(C)(=O)=O)c3)c3ccccc32)cc1 [CBK106547] — higher, 93.0905
- CCC(CC)C(=O)Nc1ccc([C@@H](O)[C@H]2COCC(=O)N2Cc2ccc(OC)cc2)cc1 [CBK289677] — higher, 96.6996
- Cc1nnc2sc(-c3cccc(NC(=S)NC(=O)c4cc5ccccc5o4)c3)nn12 [CBK267282] — higher, 105.586
- CCC(CO)Nc1cncc(-c2ccc(C(N)=O)cc2)n1 (stereo not drawn) [CBK065577] — higher, 92.1872
- Fc1ccc(-c2cncc(NCc3ccco3)n2)c(F)c1 [CBK065834] — higher, 128.041
- CC(C)N1CCC[C@H]1c1nc(-c2ccc(-c3cncnc3)nc2)no1 [CBK288892] — higher, 95.4469
- Cc1ccc(NC(=O)c2cnc3n(c2=O)CCS3)cc1 [CBK287376] — higher, 93.7142
- Cc1ccc(/C=N/n2c(S)nnc2COc2ccccc2)o1 [CBK265244] — higher, 96.9923
- CC1CCCCC1NC(=O)Cn1c(=O)n(C(C)C)c2ncccc21 (stereo not drawn) [CBK283697] — higher, 85.2356
- O=C1N(CN2CCN(c3cccc(C(F)(F)F)c3)CC2)c2ccccc2C12OCCCO2 [CBK294461] — higher, 94.6669
- CC1(c2cc(F)ccc2F)NC(=O)N(c2ccncc2)C1=O (stereo not drawn) [CBK291253] — higher, 119.071
- Nc1nonc1NC(=O)c1ccccc1Cl [CBK019040] — higher, 122.683
- O=C(NC1CCCCC1)c1cc(Br)cnc1NCc1cccnc1 [CBK076439] — higher, 95.3933
- O=C1C2CCCCN2C(=O)N1c1cccnc1 (stereo not drawn) [CBK162359] — higher, 73.0003
- Nc1nccnc1C(=O)Oc1ccccc1 [CBK090311] — higher, 131.62
- CCCNC(=O)C[C@@H]1CCN(S(=O)(=O)c2c(C)noc2C)C[C@@H]1CC [CBK288780] — higher, 102.054
- Cn1cc(C2CNCCN2C(=O)c2csc3ccccc23)cn1 (stereo not drawn) [CBK304324C] — higher, 37.9988
- COc1ccc(OC(=O)c2ccc3ncccc3c2)cc1 [CBK083572] — higher, 130.304
- CC(C)Oc1cc(Br)cc(C(=O)N2CCC(C(=O)O)C2)c1 (stereo not drawn) [CBK304268C] — higher, 84.0427
- Cc1onc(-c2c(Cl)cccc2Cl)c1C(=O)N(C)C [CBK160437] — higher, 112.647
- CCN(NC(=O)c1cc2cccc(OC)c2o1)c1ccc(C)cc1 [CBK161484] — higher, 102.681
- COc1ccc(C(=O)O)cc1NC(=S)NC(=O)c1ccc(-c2ccccc2)cc1 [CBK265064] — higher, 120.082
- CCCC/C=C/c1cnc(N)c(-c2ccc(O)cc2)n1 [CBK064068] — higher, 117.79
- CC(C)[C@H]1CN(Cc2ccco2)CCN1C(=O)NCc1ccccc1 [CBK284274] — higher, 78.7992
- CC1CCCN(C(=O)c2coc(COc3ccc(F)cc3)n2)C1 (stereo not drawn) [CBK306874] — higher, 89.5051
- CCOc1ccccc1-c1noc(-c2nn(-c3ccc(C)cc3)ccc2=O)n1 [CBK288597] — higher, 79.0204
- CCCCCC/C=C/c1cnc2nc(NC(=O)NCC)ccc2c1 [CBK061880] — higher, 63.5237
- O=C(O)c1ccc2c(c1)CCN2S(=O)(=O)c1ccc(S(=O)(=O)N2CCOCC2)cc1 [CBK295625] — higher, 113.449
- O=C(O)CCN1C(=O)c2ccc(Oc3ccc([N+](=O)[O-])cc3)cc2C1=O [CBK263357] — higher, 115.811
- N/C(=N\c1nonc1N)NC(=O)c1ccccc1 [CBK006756] — higher, 75.9508
- CC1(C)C[C@H](NC2CCOCC2)[C@@]2(CCC(=O)N3CCOCC3)CC[C@](C)(O)C[C@@H]12 [CBK289041] — higher, 105.53
- CNCC(=O)N1c2ccccc2CCc2ccc(NC(=O)OC)cc21 [CBK261285C] — higher, 93.8075
- O=C(CCc1ccccc1)NC(c1cccc([N+](=O)[O-])c1)c1c(O)ccc2ccccc12 (stereo not drawn) [CBK265278] — higher, 87.8667
- CCN(CC)C(=O)CN1CC=C(c2ccc(C)o2)CC1 [CBK283497] — higher, 99.2262
- OC(c1cccs1)C1CCN(Cc2cnn(-c3ccccc3)c2)CC1 (stereo not drawn) [CBK307290] — higher, 51.0662
- CC(C)Oc1ccc(C(=O)C2=C(O)C(=O)N(CCN(C)C)C2c2ccccc2F)cc1 (stereo not drawn) [CBK264886] — higher, 112.401
- O=C(NCCN1CCOCC1)N1CCN(c2ccccc2)CC1 [CBK155180] — higher, 85.7891
- CCn1c(=O)n(CC(=O)NCc2ccc(F)cc2)c2cccnc21 [CBK283901] — higher, 86.5725
- O=C(CSc1nnc(-c2cccnc2)n1Cc1ccccc1)Nc1ccc(F)cc1 [CBK267528] — higher, 91.9749
- O=C(CN1CCOCC1)Nc1ccc(S(=O)(=O)Nc2cc(Cl)cc(Cl)c2)cc1 [CBK001239] — higher, 80.5483
- Nc1ncc(-c2cccc(/C=C/C(=O)O)c2)nc1NCc1ccco1 [CBK063691] — higher, 139.907
- OC(COCc1ccc(Cl)cc1)CN1CCN(C(c2ccccc2)c2ccccc2)CC1 (stereo not drawn) [CBK074857C] — higher, 89.1701
- N#Cc1c2c(c3nncn3c1Nc1ccccc1)CCCC2 [CBK288197] — higher, 100.593
- O=S(=O)(NCc1nc(-c2ccccc2)no1)c1ccc(F)cc1 [CBK268198] — higher, 99.7118
- Cc1ccc(S(=O)(=O)N2CCN(C(=O)C3CCCCC3C(=O)O)CC2)cc1C (stereo not drawn) [CBK286936] — higher, 88.063
- O=C(N1CCc2ccc(S(=O)(=O)Nc3ccc(-c4nnn[nH]4)cc3)cc2C1)C(F)(F)F [CBK155437] — higher, 92.4489
- O=C(O)c1cc(-c2cccc(O)c2)nc2ccc(Br)cc12 [CBK261777] — higher, 107.64
- O=C(Nc1cccc(N2CCNCC2)c1)c1cnc2ccccc2c1 [CBK029415T] — higher, 94.1434
- CCNC(=O)N1Cc2nc[nH]c2C[C@H]1C(=O)NCc1ccc(OC)cc1 [CBK288973] — higher, 104.841
- Fc1ccc(OCCNC2CCc3[nH]c4ccccc4c3C2)cc1 (stereo not drawn) [CBK107791] — higher, 82.9824
- O=C(O)[C@H]1CN(C(=O)CCc2ccco2)C[C@@H]1c1ccc(F)cc1 [CBK283722] — higher, 109.837
- O=C1c2ccccc2C(=O)N1Cc1nc2ccccc2c(=O)n1CCN1CCOCC1 [CBK268472] — higher, 87.4442
- Cc1cc(NC(=O)c2ccco2)nc2c1c(=O)oc1ccccc12 [CBK291124] — higher, 85.0274
- N#CCn1c(-c2nonc2N)nc2ccccc21 [CBK050974] — higher, 96.0468
- Cc1ccc(OC(C)C(=O)NCCCN2CCOCC2)cc1C (stereo not drawn) [CBK268109] — higher, 113.17
- COC(=O)c1sccc1S(=O)(=O)n1ccc2ccc(Br)cc21 [CBK003528] — higher, 86.9947
- Cc1ccc(S(=O)(=O)N(C)CC(=O)O/N=C(\N)c2cccnc2)cc1 [CBK266717] — higher, 82.9016
- CCOCCC(=O)NC1CCCc2nc(N3CCC(CO)CC3)ncc21 (stereo not drawn) [CBK306624] — higher, 35.8461
- CCOc1ccc(OCC)c(S(=O)(=O)n2nc(C)cc2C)c1 [CBK264024] — higher, 114.437
- COCCNC(=O)NCCCn1c(-c2ccncc2)nc2cccnc21 [CBK288581] — higher, 109.18
- Cc1cc(C)n(CC(O)CN(Cc2ccco2)CC2CC=CCC2)n1 (stereo not drawn) [CBK283159] — higher, 86.7871
- CCn1nc2c(c1C(=O)Nc1cccc(CCc3ccncc3)c1)CCCC2 [CBK285561] — higher, 91.1193
